Out of some 48,000 compounds screened, about 120 (0.25%) were called active. Inconclusive results (about 4%) are left out. Calls follow the shape of the dose curve; as a rule, active = well fitted activation curve with a large enough effect; inconclusive = small, poorly fitted or top-dose-only effect, or another doubt; inactive = no such curve, though single readings can be large or run the other way. The list shows a part of the results.
Assay: Primary qHTS for Identification of Small Molecule Activators of Huntingtin-Antisense Promoter Activity; also: nearly all actives have a fitted effect of over 55% in size
Settings: HEK293 HTT-AS promoter firefly luciferase reporter, 24 h; series mostly up to 57.5 µM; activity change, positive = activation: at the top concentration
Method in brief: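 Luminescence was read after Dual-Glo reagent and a 10 min room-temperature incubation. Values were normalized to vehicle (0% activity) and zero RLU (-100% activity). Reporter HEK293 cells had been exposed to compounds (up to 57.5 uM final) for 24 h.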

Activity change, positive = activation, inactive:
COc1ccccc1C(=O)N1CCC(c2c[nH]c3ccccc23)(c2c[nH]c3ccccc23)CC1 -33.8%
O=C(CSc1nc(-c2ccccc2)[nH]c1-c1ccc(F)cc1)NC1CCCC1 -26.4%
COc1ccc(CCNC(=O)c2cc3cccc4c3n2CC(C)S4)c(OC)c1OC (stereo unspecified) -18.3%
CCCC(=O)Nc1c(C(=O)N2CCN(c3ccccc3)CC2)oc2ccccc12 -16.7%
CC(C)c1ccc(S(=O)(=O)Nc2cc3c(cc2NCc2ccccc2)n(C)c(=O)n3C)cc1 -36.7%
CCc1ccccc1NC(=O)C1=CC(c2ccc3c(c2)OCO3)=NS(=O)(=O)N1C -14.1%
COc1ccccc1C(=O)CC1(O)C(=O)N(CC(N)=O)c2ccccc21 (stereo unspecified) -4.04%
CCOc1ccccc1NC(=O)Cn1c(=O)n(Cc2ccco2)c(=O)c2cccnc21 -17.6%
CC(C)(C)OC(=O)N1CCC(c2c(C(=O)O)cnn2-c2ccc(F)cc2F)CC1 2.93%
O=C(CN1C(=O)COc2ccc(S(=O)(=O)N3CCCCCC3)cc21)N1CCN(c2cccc(Cl)c2)CC1 -28.7%
Cc1cccc(N2CCN(C(=O)CCNS(=O)(=O)c3ccc4c(c3)CCN4C(=O)C3CC3)CC2C)c1 (stereo unspecified) -37.4%
O=C(NC1CC(=O)N(c2ccccc2)C1)c1cccs1 (stereo unspecified) -8.85%
c1ccc(CNc2ncnc3[nH]ncc23)cc1 -23.9%
CCOC(=O)N1CCc2c(sc3c2c(=O)n(CCc2ccccc2)c(=O)n3Cc2ccc(C)cc2C)C1 -7.63%
COc1ccc(NS(=O)(=O)c2ccc(N)cc2)nn1 -5.98%
Nc1ccc(C(=O)NCC(=O)O)cc1 -17.1%
COc1ccc(-c2nc(CCNC(=O)Cc3ccc(F)cc3)cs2)cc1 -12.2%
CSc1ccc(CCNC(=O)c2ccc3c(c2)nc2n3CCC(C)C2)cc1 (stereo unspecified) -0.502%
CCOCCc1nn2c(=O)cc(COC(=O)c3ccccc3NC(=O)c3cccs3)nc2s1 -7.98%
CCc1ccccc1NC(=O)N1CC(CC)Oc2ccc(Cl)cc21 (stereo unspecified) -26.2%
COc1ccc(N2CCN(C(=O)c3c(C)nn(-c4ccc(F)cc4)c3-n3cccc3)CC2)cc1 -0.0979%
O=C(C1CCCN(S(=O)(=O)c2cccs2)C1)N1CCN(c2ccccc2F)CC1 (stereo unspecified) -29.1%
CN1C(=O)c2ccccc2Sc2ccc(NC(=O)NCc3ccccc3Br)cc21 -43.5%
Cc1ccc(CN(Cc2cccn2-c2nnc(N3CCCC3=O)s2)C(=O)Nc2cc(C)cc(C)c2)cc1 -26.4%
Cc1nc2sc(C)c(C)n2c(=O)c1S(=O)(=O)NCCc1ccc(Cl)cc1 -14.2%
COc1ccc(-c2nc3c(c(SCC(=O)Nc4cc(C)cc(C)c4)n2)Cc2c(CO)cnc(C)c2O3)cc1 3.34%
COc1cccc(CN2C(=O)C3(SCC(=O)N3c3ccc(F)cc3)c3ccccc32)c1 (stereo unspecified) -41.4%
Cc1ccc(CN(Cc2ccco2)C(=O)c2ccccc2Cl)o1 -20%
O=C(NCc1cccc(Cl)c1)c1ccc2c(c1)nc1n2CCOC1 -1.3%
CC(=O)c1ccc(NC(=O)c2cn(C)c(=O)c3ccccc23)cc1 4.2%
CCCn1c2ccccc2c2cnn(CC(=O)Nc3ccccc3OC)c(=O)c21 -38.1%
O=C(c1ccc(C(=O)N2CCC(N3CCCC3)CC2)c(Nc2ccccc2)c1)N1CCC(N2CCCC2)CC1 -1.58%
COC(=O)c1ccccc1NC(=O)Cn1nc(C)c2nn(-c3ccc(Cl)cc3)c(C)c2c1=O -26.2%
COc1cc(NC(=O)Nc2nnc(N3CCCCC3)s2)cc(OC)c1 -34.5%
Cc1cccc(NC(c2cccc(Cl)c2)c2ccc3cccnc3c2O)n1 (stereo unspecified) -38.5%
OC[C@H]1O[C@@H](Oc2ccc(O)cc2)[C@H](O)[C@@H](O)[C@@H]1O -7.55%
Cc1ccc2c(CC(=O)Nc3ccc(S(=O)(=O)N4CCC(C)CC4)cc3)coc2c1 -12.1%
Cc1nn(-c2ccccc2)c2c1N(CCCC(=O)NCc1ccc(OC(C)C)cc1)C(=O)CS2 -43%
CC1CCc2nc3ccc(S(=O)(=O)N4CCC(C(=O)NCc5ccccc5Cl)CC4)cc3c(C(=O)O)c2C1 (stereo unspecified) -14.5%
O=c1c2[nH]c3ccccc3c2nc(SCc2ccccc2F)n1-c1ccc(F)cc1 -19%
CCc1ccccc1NC(=O)Cn1nc(-c2cc(C)ccc2C)c2c(c1=O)CCCC2 -14.9%
Cc1ccccc1OCC(=O)Nc1ccc(OCc2cc(=O)n3ccccc3n2)cc1 14%
Cc1ccc(CNC(=O)c2ccc3oc(=O)n(Cc4ccccc4)c3c2)cc1 -24.1%
COc1ccc(Cl)cc1NC(=O)C1CCCN(S(=O)(=O)c2ccc3c(c2)CCCC(=O)N3)C1 (stereo unspecified) -23.6%
O=C(CSc1nc2c(c(=O)[nH]1)CN(Cc1ccc3c(c1)OCO3)CC2)Nc1cc(F)ccc1F -5.4%
COc1ccc(NC(=O)CSc2nc3ccccc3n2CC(=O)NCc2ccc(F)cc2)cc1 -2.33%
COC(=O)c1ccc(NC(=O)c2cc3cc(C)ccc3n2C)cc1 -17.8%
CCCCSCCCNC(=O)c1cn(CC)c2ccc(S(=O)(=O)N3CCOCC3)cc2c1=O -24.6%
CCOc1ccc(NC(=O)CSc2nnc3c(C)cc4ccccc4n23)cc1 12.4%
COc1ccc(S(=O)(=O)N2CCC(C(=O)Nc3ccc(Oc4ccccc4)cc3)CC2)cc1OC -12.7%
Nc1ccc(S(=O)(=O)c2ccc(N)cc2)cc1 -3%
COc1ccc(NC(=O)c2ccc(-c3nc(COc4ccccc4)c(C)o3)cc2)cc1 -15.8%
COc1ccc2c(c1)c1c3n2CCN(C)C3=NCC1 -6.97%
CN(C)CCc1c[nH]c2ccc(Cn3cncn3)cc12 -5.07%
Cc1ccccc1C(=O)Nc1cccc(-c2nc3cccnc3s2)c1 -17.4%
COc1ccc(C(CNC(=O)COc2cc(C)c(Cl)c(C)c2)N2CCCCC2)cc1 (stereo unspecified) -16.2%
CC(C)C(C)(C)C(C)(C)C(C)(C)S -5.18% [at 116 µM, percent change from vehicle, -100% = no light]
COc1ccc(Cn2ccc3nc(C)c(C(=O)Nc4ccc(OC)c(OC)c4)cc3c2=O)cc1 -12.3%
COc1cccc(N2CCN(C(=O)CCn3nc(C)c(S(=O)(=O)N4CCCC4)c3C)CC2)c1 2.45%
O=C(CSc1nc(=O)n(Cc2ccncc2)c2c1CCC2)Nc1ccccc1 -4.71%
CCCN(CCC)C(=O)c1c[nH]c2ccc(S(=O)(=O)N(C)c3ccc(Cl)cc3)cc2c1=O -22.7%
CCCCOC(=O)c1ccc(NC(=O)C2(c3cccs3)CCOCC2)cc1 -21.5%
CCOC(=O)c1c(NC(=O)CSc2cn(CCNC(=O)c3ccc(OC)cc3)c3ccccc23)sc2c1CCC2 -49.5%
COc1ccc(NC(=O)CSc2nc(-c3ccccc3)cc(-c3cc(OC)c(OC)c(OC)c3)c2C#N)c(OC)c1 -18.2%
CCOc1ccccc1N(C)C(=O)c1sc2nc3n(c(=O)c2c1C)CCCC3 -14.4%
Cc1nn(CC(=O)Nc2ccc(C(C)C)cc2)c(=O)c2c(C)n(-c3ccc(Cl)cc3)nc12 -19.3%
COc1ccc(NC(=O)CSc2nccn2C2CCCC2)cc1OC -14.4%
COc1ccc(-c2cn3nc(N4CCCC(C(=O)Nc5ccccc5F)C4)sc3n2)cc1 (stereo unspecified) -17.5%
CCCCN(CCCNC(=O)c1cc(Nc2ccc(OC)cc2OC)nc2ccccc12)Cc1ccccc1 -34.1%
Cc1ccc(Cn2cc(S(=O)(=O)c3ccccc3)c(=O)c3cc(F)c(N4CCOCC4)cc32)cc1 -18%
Cn1ccc2cc(S(=O)(=O)N3CCN(C(=O)Nc4cccc(F)c4)CC3)ccc21 -15.3%
COc1ccc(NC(=O)C(c2ccc(OC)cc2)N(C)C(=O)Cc2cccs2)cc1 (stereo unspecified) -2.11%
CC(C)(Oc1ccc(Cl)cc1)C(=O)Nc1ccc(-c2nc3ncccc3o2)cc1 -4.05%
COc1ccccc1N1CCN(S(=O)(=O)CCNC(=O)c2cc(=O)c3ccccc3o2)CC1 -1.54%
COCCn1c(C)cc(O)c(C(c2ccccc2)N2CCN(c3ccc(F)cc3)CC2)c1=O (stereo unspecified) -6.43%
Cc1ccc(N(C)C(=O)Cn2nc(Cc3ccncc3)c3ccccc3c2=O)cc1C -3.73%
Cc1ccc(CNS(=O)(=O)c2ccc(F)c(C(=O)Nc3ccc(C)c(F)c3)c2)cc1 -18.6%
O=C(NCCS(=O)(=O)N1CCN(c2ccccc2F)CC1)c1cc(=O)c2ccccc2o1 -9.98%
O=C(NCCc1ccc(Cl)cc1)c1ccc(CS(=O)(=O)Cc2ccc(F)cc2)o1 -15.3%
O=C(Nc1ccc(F)cc1)c1ccc(-n2cnc3cccnc32)cc1 3.94%
COC(=O)c1c(SC)nc2ccccc2c1OCc1cccc(C)c1 -4.68%
O=c1c(S(=O)(=O)c2ccccc2)cn(Cc2ccc(F)cc2)c2cc(N3CCCC3)c(F)cc12 -12.9%
Cc1ccc(OCc2cc(=O)n3c4c(sc3n2)CCCC4)c(C)c1 -5.29%
COc1cccc(CNC(=O)C2CCC(CNS(=O)(=O)c3cccs3)CC2)c1 (stereo unspecified) -8.7%
CCCC(=O)N(c1ccc2oc3c(c2c1)CCCC3)S(=O)(=O)c1ccc(CC)cc1 -19.3%
Cc1ccccc1NC(=O)c1ccc(NC(=O)N2CCSc3ncccc32)cc1 -0.938%
COc1cccc(NC(=O)c2sc(-n3nc(C)c(Cc4ccccc4Cl)c3C)nc2C)c1 -4.25%
CC1CCN(S(=O)(=O)c2ccc3c(c2)N(CC(=O)NCc2ccccc2Cl)C(=O)CO3)CC1 -22%
COc1ccc(OC)c(-n2c(=O)[nH]c3cc(C(=O)NCCc4ccc(OC)c(OC)c4)ccc3c2=O)c1 -4.19%
COc1ccc(NCc2nc3ccccc3n2CCOc2ccccc2C)cc1 3.21%
CCSC1=NC2(CCN(C(=O)NC3CCCCC3)CC2)N=C1c1ccc(C)cc1 -9.18%
Cc1cc(S(=O)(=O)Nc2cc3c(cc2C)n(C)c(=O)c(=O)n3C)ccc1F -22.2%
Cc1ccccc1NC(=O)CSc1ncc2c(n1)-c1ccccc1N(C)S2(=O)=O -9.55%
Cc1cn2c(=O)cc(COC(=O)c3cccc(NC(=O)C(C)Oc4ccccc4)c3)nc2s1 (stereo unspecified) -29.8%
Cc1cc(C)c2c(n1)nn1c(C)c(CCC(=O)Nc3ccc(C)c(Cl)c3)c(C)nc21 -9.11%
CCOc1ccccc1NC(=O)c1c(NC(=O)C(C)Oc2cccc(Cl)c2)sc2c1CCCCC2 (stereo unspecified) -19.7%

— PubChem BioAssay AID1508624 (National Center for Advancing Translational Sciences (NCATS), 2021)
